# Measured values from publication PMC4336329 (PLoS ONE, 2015).
# The campaign covered roughly 310,000 compounds. About 2,200 (0.71%) showed an effect of 50% or more. Effects have a minus sign here. The list shows a part of the results.
# Biological target: human ether-à-go-go-related gene (hERG) potassium channel (human, UniProt Q12809)
# Test: primary screen, population patch clamp on CHO cells stably expressing hERG
# human ether-à-go-go-related gene (hERG) potassium channel, sequence (Q12809 whole entry, looked up): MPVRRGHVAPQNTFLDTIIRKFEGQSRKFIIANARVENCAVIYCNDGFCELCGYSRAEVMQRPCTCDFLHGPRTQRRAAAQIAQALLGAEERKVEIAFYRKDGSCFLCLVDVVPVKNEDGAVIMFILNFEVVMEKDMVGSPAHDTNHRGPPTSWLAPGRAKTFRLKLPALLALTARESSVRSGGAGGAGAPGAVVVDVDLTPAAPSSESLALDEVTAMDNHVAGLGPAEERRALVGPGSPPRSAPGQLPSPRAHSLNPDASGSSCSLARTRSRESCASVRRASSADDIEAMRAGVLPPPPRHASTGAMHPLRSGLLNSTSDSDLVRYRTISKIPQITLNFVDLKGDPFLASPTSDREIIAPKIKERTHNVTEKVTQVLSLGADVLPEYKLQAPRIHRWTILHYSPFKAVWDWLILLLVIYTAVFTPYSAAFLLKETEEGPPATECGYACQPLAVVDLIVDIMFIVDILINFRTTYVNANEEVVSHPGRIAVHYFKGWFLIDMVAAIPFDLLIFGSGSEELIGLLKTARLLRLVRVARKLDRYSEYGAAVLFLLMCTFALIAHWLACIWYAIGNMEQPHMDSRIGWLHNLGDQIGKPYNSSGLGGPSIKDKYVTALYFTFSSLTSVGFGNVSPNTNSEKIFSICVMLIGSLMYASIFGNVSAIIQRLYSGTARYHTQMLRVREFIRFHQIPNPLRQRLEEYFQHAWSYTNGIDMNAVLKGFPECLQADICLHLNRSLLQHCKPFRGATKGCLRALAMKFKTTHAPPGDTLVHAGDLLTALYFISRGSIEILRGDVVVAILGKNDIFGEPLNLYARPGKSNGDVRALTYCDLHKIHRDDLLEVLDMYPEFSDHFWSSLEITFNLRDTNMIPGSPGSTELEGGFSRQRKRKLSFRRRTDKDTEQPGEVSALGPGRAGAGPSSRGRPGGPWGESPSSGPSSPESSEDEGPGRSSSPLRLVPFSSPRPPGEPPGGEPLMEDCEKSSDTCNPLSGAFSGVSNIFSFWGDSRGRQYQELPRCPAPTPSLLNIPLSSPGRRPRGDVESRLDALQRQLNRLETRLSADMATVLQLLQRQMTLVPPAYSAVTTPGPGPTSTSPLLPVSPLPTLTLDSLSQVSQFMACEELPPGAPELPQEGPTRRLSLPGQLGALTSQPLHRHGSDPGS
row,Compound,"hERG current change (%, negative = inhibition) at 1uM"
1,Cc1cccnc1CCNC(=O)CCc1nnc(-c2ccccc2)o1,6.65%
2,CC(C)CCNC(=O)C(=O)NCC1OCCCN1S(=O)(=O)c1cccs1 (stereo not shown),6.33%
3,CC(=O)C1=C(C)Nc2ncnn2C1c1cccc(Br)c1 (stereo not shown),1.05%
4,COc1ccc(OC)c(CNS(=O)(=O)c2cc(CN3C(=O)c4cccnc4C3=O)ccc2OC)c1,-23.9%
5,CCOC(=O)c1nn(-c2ccc(Cl)cc2)c2nc(-c3ccc(C)cc3)c(C#N)c(=O)n12,5.16%
6,COc1ccc(OC)c(C(=O)CCCC(=O)c2cc(OC)ccc2OC)c1,20.3%
7,Nc1nncn1C(=O)CCCN1C(=O)c2ccccc2C1=O,-5.39%
8,COCCCNC(=O)CCc1c(C)nc2c(c(C)nn2-c2ccc(C)cc2)c1C,7.49%
9,C=CCOC(=O)COc1cc(C)cc2oc(=O)c3c(c12)CCC3,-0.287%
10,CCc1ccc(N(C(=O)c2csnn2)C(C(=O)NC(C)(C)CC)c2ccccn2)cc1 (stereo not shown),-24.9%
11,Cn1c(NC(=O)C[n+]2cc(-c3ccc(Cl)cc3)n3c2CCC3)cc(=O)n(C)c1=O.[Cl-],15.5%
12,CCOC(=O)c1sc(NC(=O)c2c(C)nn(Cc3ccccc3)c2C)cc1C,9.92%
13,CC(=O)NN1C(=O)/C(=C2/Sc3ccccc3N2C)SC1=S,14.7%
14,CC(=O)Nc1ccc(N(C(=O)CNC(=O)c2ccco2)C(C(=O)NCc2ccco2)c2ccccc2)cc1 (stereo not shown),15.8%
15,COC(=O)c1ccc(/C(O)=C(\C#N)c2nc3ccccc3s2)cc1,18.5%
16,CC(=O)Nc1ccc(S(=O)(=O)Nc2ccc3c(c2)C(=O)OC3)cc1,16.7%
17,Cc1nnc(SCC(=O)Nc2c(Cl)cccc2Cl)[nH]c1=O,16.8%
18,O=C1C(Cl)=C(N2CCC(C(=O)O)CC2)C(=O)c2ccccc21,-6.15%
19,O=C(/C=C/c1cccs1)c1ccc(Br)cc1,5.65%
20,O=C(/C=C/c1ccc(Cl)c([N+](=O)[O-])c1)c1cccnc1,8.02%
21,COC(=O)C1=C(C)N(Cc2ccccc2)C(=O)N[C@H]1c1ccccc1,4.87%
22,CCCCN(C(=O)c1ccc([N+](=O)[O-])s1)c1c(N)n(CC(C)C)c(=O)[nH]c1=O,17.3%
23,O=C(Nc1ccccc1)[C@@H]1CC=C[C@@H]2CCN(C3CCCCC3)C(=O)[C@@H]21,12.3%
24,Cc1cccc(OCCC(=O)OCC(=O)Nc2c(C)nn(-c3ccccc3)c2C)c1,-12.2%
25,Fc1ccc2c(c1)nnn2C1CCN(Cc2c(Cl)cccc2Cl)CC1,13.1%
26,COc1ccc(CN(C)C2CCCCC2)c(C)c1C,0.0703%
27,O=C(Nc1ccc(N2C(=O)c3cccc4cccc(c34)C2=O)cc1)c1ccc(N2CCCCC2)c([N+](=O)[O-])c1,10.3%
28,Cc1ccc(C2CC(=O)NC(SCCC(C)C)=C2C#N)cc1 (stereo not shown),-5.25%

row,Compound,"hERG current change (%, negative = inhibition) at 1uM"
1,Cc1cccc(CSc2nc3[nH]ncc3c(=O)[nH]2)c1,5.01%
2,Cc1n[nH]c(C)c1S(=O)(=O)N1CCCC(C(=O)NC2CCCCC2)C1 (stereo not shown),13.7%
3,CC(NS(=O)(=O)c1ccc2c(c1)oc(=O)n2C)c1ccccc1 (stereo not shown),9.67%
4,Cn1ccnc1SCC(=O)c1ccc(C#N)cc1,5.55%
5,CCn1c(CNC(=O)Cc2ccc(OC)cc2)nnc1SCC(=O)Nc1ccc(C(=O)O)cc1,13.5%
6,O=C(Nc1ncn[nH]1)c1ccccc1Br,2.11%
7,CC(C)NS(=O)(=O)c1ccc(NC(=O)C2CCCCC2)cc1,13.3%
8,Cc1ccc(-c2noc(CCC(=O)N3CCCc4ccccc43)n2)cc1,0.398%
9,O=C(CCCc1c[nH]c2ccccc12)NCc1ccccc1C(F)(F)F,14.4%
10,Cc1cccc(N(C(=O)CCC(=O)Nc2nccs2)C(C(=O)NC(C)(C)C)c2ccc(O)cc2)c1 (stereo not shown),4.6%
11,Cc1cc(C)n2nc(C(=O)OCC(=O)N(CCC#N)c3ccc(F)cc3)nc2n1,19.6%
12,CC(c1ccccc1)n1c(-c2ccncc2)n[nH]c1=S (stereo not shown),8.79%
13,Cn1c(SCC(=O)c2ccccc2)nnc1C1COc2ccccc2O1 (stereo not shown),7.24%
14,O=C(NCCN1CCOCC1)c1ccc(/C=C2\Sc3ccccc3N(Cc3ccc(F)cc3)C2=O)cc1,14.3%
15,O=C(CCCOc1ccc(Cl)cc1Cl)Nc1ccncc1,2.47%
16,CC(C)Cn1c(N)c(C=O)c(=O)n(C)c1=O,8.96%
17,Cc1ccc(NC(=O)CSc2nccn2Cc2ccccc2)cc1C,-1.62%
18,Cc1ccccc1CCNC(=O)CCn1nc(C)c2c(C)n(-c3ccccc3)nc2c1=O,6.78%
19,NC(=O)C1CCN(C(=O)c2ccc(NS(=O)(=O)c3ccc(F)c(F)c3)cc2)CC1,6.65%
20,COc1ccc(NC(=O)CN(C)C(=O)c2ccc3c(c2)NC(=O)CS3)cc1,1.42%
21,O=C(Oc1ccc(N(Cc2cccs2)C2=NS(=O)(=O)c3ccccc32)cc1)c1ccc(Cl)cc1,7.78%
22,CC(C)CN(C(=O)COC(=O)CCN1C(=O)c2ccccc2C1=O)C1CCS(=O)(=O)C1 (stereo not shown),14.6%
23,CSc1nc2sc3c(c2c(=O)n1C)CCC3,11.4%
24,COc1ccc(S(=O)(=O)N(CC(=O)O)c2ccccn2)cc1,9.15%
25,CN1CCN(CC(=O)Nc2cc(N3CCOCC3)ccc2[N+](=O)[O-])CC1,6.69%
26,COc1ccc(/C=N/NC(=O)CNC(=O)c2cccs2)cc1,5.35%
27,CN1C(=O)CS(=O)c2ccc(C(=O)NC3CC3)cc21 (stereo not shown),22.1%
